# Data published in PubChem BioAssay AID651813 (National Center for Advancing Translational Sciences (NCATS), 2012).
# The campaign covered roughly 2,100 compounds. About 1,100 (52%) were called active. The set was probably picked from earlier hits. The shares of active, inactive and inconclusive entries below differ from those in the screen. The call rests on the fitted dose curve; in most records, active means well fitted inhibition curve with a large enough effect; inconclusive means small, poorly fitted or top-dose-only effect; inactive means no such curve, though single readings can be large or run the other way. Potencies of inconclusive entries are left out as doubtful fits.
# Molecular target: DNA dC->dU-editing enzyme APOBEC-3G (Homo sapiens) (UniProt Q9HC16)
# Experiment: qHTS for inhibitors of Vif-A3G interactions: Cherry picks counterscreen;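 further: hits raise yellow fluorescence by blocking Vif-driven A3G-eYFP degradation; nearly all actives have a fitted effect of over 70% in size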;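 on max response: max response given as percent of control signal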
# Conditions: HeLa A3G-eYFP + Vif (tagged APOBEC3G with the HIV-1 protein that degrades it), eYFP fluorescence, 24 h
# How it was run: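 HeLa cells stably expressing A3G-eYFP and Vif were treated for 24 h at 37 deg C with compounds at several concentrations; yellow fluorescence (Ex 488 nm, Em 500-530 nm) read by Acumen Explorer, MG132 as positive control.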
# Potency means the concentration at half of the fitted maximal effect; tags describe the fitted curve by direction and shape.
# Chain of UniProt Q9HC16 (Q9HC16 whole entry, looked up): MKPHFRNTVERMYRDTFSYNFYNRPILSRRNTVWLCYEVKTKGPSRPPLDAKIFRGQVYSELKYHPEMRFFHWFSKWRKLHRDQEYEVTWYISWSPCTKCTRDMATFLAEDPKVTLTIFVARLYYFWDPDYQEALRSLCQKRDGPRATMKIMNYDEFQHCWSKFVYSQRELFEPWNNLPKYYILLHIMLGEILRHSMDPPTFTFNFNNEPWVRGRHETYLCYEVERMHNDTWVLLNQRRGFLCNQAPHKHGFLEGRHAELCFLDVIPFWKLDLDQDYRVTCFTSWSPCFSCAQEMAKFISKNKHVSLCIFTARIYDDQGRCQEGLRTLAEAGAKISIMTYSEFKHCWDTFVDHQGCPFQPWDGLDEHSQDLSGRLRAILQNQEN
Compound,Potency,max response
COc1cccc(C2Nc3ccc4ccccc4c3C3=C2C(=O)CCC3)c1O (stereo not drawn),"inconclusive [inhibitor, single point]",–
CCCN1CCC(=NNc2ccc(S(=O)(=O)N3CCOCC3)cc2[N+](=O)[O-])CC1,active: 14 µM,–
CCOC(=O)/C=c1\s/c(=C\c2ccccc2C)c(=O)n1CC(=O)NCc1ccc2c(c1)OCO2,"inconclusive [inhibitor, single point]",–
CSc1nsc(/C=C/Nc2ccc(O)cc2C)c1C#N,"inconclusive [inhibitor, single point]",–
Cc1cc2ccccn2c1C(=O)c1ccc([N+](=O)[O-])o1,"inconclusive [inhibitor, single point]",–
C/C(=N\NC(=O)C(C)n1nc(C)c([N+](=O)[O-])c1C)c1ccccc1O (stereo not drawn),–,inactive: 3.13%
COC(=O)c1sccc1NC(=S)Nc1cc(C)cc(C)c1,–,inactive: 5.75%
COc1cccc(/C=N/n2c(C3CCCCC3)n[nH]c2=S)c1O,–,inactive: 12.3%
O=C(Nc1nc2ccc(S(=O)(=O)N3CCCC3)cc2s1)C1CCCCC1,"inconclusive [inhibitor, partial curve]",–
COC(=O)c1c(N2C(=O)[C@H]3[C@@H](C2=O)[C@]2(C(=O)Nc4c(C)cccc42)N2CCC[C@@H]32)sc(C)c1C,active: 6.27 µM,–
CC(=O)Nc1cc(-c2ccccc2CN(C)C)cn2c(-c3ccc(C(C)=O)cc3)cnc12,"inconclusive [inhibitor, single point]",–
COCCNC(=S)N/N=C(\C)c1ccccc1O,–,inactive: 6.88%
O=C(OCc1ccccc1)c1ccc(NCc2cc(O)ccc2O)cc1,"inconclusive [inhibitor, single point]",–
C=CCNc1nc2cc(-c3cccc(Cl)c3)sc2c(=O)n1C,active: 14 µM,–
Cc1c(C(=O)Nc2cnccn2)oc2ccccc12,"inconclusive [inhibitor, partial curve]",–
O=S(=O)(Nc1cccc2ncccc12)c1cccs1,"inconclusive [inhibitor, single point]",–
O=C(Cc1cc2ccccc2o1)NCc1ccc(F)cc1,"inconclusive [inhibitor, single point]",–
NC(=O)c1c(Nc2nc3c(F)cccc3s2)sc2c1CCCC2,"inconclusive [inhibitor, single point]",–
Cc1ccc(Cc2c(C3CCCCC3)nc3ccc(C)cn23)cc1,–,inactive: 27.2%
Cc1ccc2nc(/C(C#N)=C/c3ccc(-c4ccccc4C(=O)O)o3)[nH]c2c1,–,inactive: 43.5%
CC[n+]1ccc(/C=C2\Sc3ccccc3N2CCCS(=O)(=O)[O-])c2ccccc21,"inconclusive [inhibitor, partial curve]",–
CC(Nc1oc(-c2ccc(COc3ccccc3)o2)nc1C#N)c1ccccc1 (stereo not drawn),"inconclusive [inhibitor, single point]",–
O=C(N=c1ccn(-c2nc3ccccc3nc2NS(=O)(=O)c2ccccc2)cc1)c1cccs1,–,inactive: 0.295%

Compound,Potency,max response
Cc1ccc(NC(=O)N2CC=C(c3c[nH]c4ccccc34)CC2)cc1Cl,"inconclusive [inhibitor, single point]",–
O=C(Cc1ccccc1)N/N=C/c1ccc(-c2ccc([N+](=O)[O-])cc2)o1,"inconclusive [inhibitor, single point]",–
Cc1ccc(F)c(S(=O)(=O)NC(=O)C2(C)CCN2C(=O)Cc2ccc(Cl)cc2Cl)c1 (stereo not drawn),–,inactive: 13%
COc1ccc(C(C)(O)c2nc(-c3ccccc3OC)cs2)cc1 (stereo not drawn),"inconclusive [inhibitor, single point]",–
CCN1CCc2c(sc(-n3cccc3)c2C(C)NC(=O)Nc2ccc(C(=O)OC)cc2)C1 (stereo not drawn),"inconclusive [inhibitor, single point]",–
Nc1c(C(=O)c2ccccc2)sc2snc(SCC(=O)c3ccccc3)c12,active: 14 µM,–
Cn1cc(/C=C2\SC(=O)N(c3ccccc3)C2=O)c2ccccc21,"inconclusive [inhibitor, single point]",–
Cc1cc2nc(SCCOC(=O)Nc3cccc(Cl)c3)nc(C)c2cc1C,–,inactive: 0.137%
Cc1cc(C)c(/C=C2\C(=O)Nc3ccccc32)[nH]1,"inconclusive [inhibitor, single point]",–
Cc1ccc(SC2=C(Sc3ccc(C)cc3)C(=O)c3ccccc3C2=O)cc1,"inconclusive [inhibitor, single point]",–
Cc1ccc2c(CC(=O)NCc3ccco3)coc2c1C,"inconclusive [inhibitor, partial curve, poor fit]",–
CCN(CC)c1ccc(/C=C/C(=O)c2ccc(Br)cc2)cc1,–,inactive: 26.9%
O=C(Nc1nnc(-c2ccc3c(c2)CCCC3)o1)c1c(F)cccc1F,–,inactive: 11.9%
C/C(=N\NC(=O)c1cc(-c2ccncc2)nc2ccccc12)c1ccc(N2CCOCC2)cc1,"inconclusive [inhibitor, full curve, poor fit]",–
CCOc1ccc(Br)cc1C1C(C(=O)OC)=C(N)Oc2cc(N(C)C)ccc21 (stereo not drawn),"inconclusive [inhibitor, full curve, poor fit]",–
COc1ccc(COc2cc(-c3cccc(OC)c3)nc3ccc(NC(=O)C(C)C)cc23)cc1,active: 4.98 µM,–
O=C1/C(=C/c2ccccc2)CN(C(=O)CCN2CCOCC2)C/C1=C\c1ccccc1,"inconclusive [inhibitor, single point]",–
O=C(NCc1ccco1)C1Cc2c(-c3cccc(F)c3)ccnc2O1 (stereo not drawn),active: 5.59 µM,–
c1ccc(C2CNCc3c2ccc2ccccc32)cc1 (stereo not drawn),"inconclusive [inhibitor, single point]",–
CCN(CC(=O)Nc1ccccc1-c1ccccc1)Cc1nc2ccccc2c(=O)[nH]1,active: 12.5 µM,–
O=c1[nH]cnc2n[nH]nc12,"inconclusive [inhibitor, partial curve, poor fit]",–
Cc1cc(C)c(S(=O)(=O)N2CCCCC2CCNC(=O)C(=O)NCc2ccco2)c(C)c1 (stereo not drawn),"inconclusive [inhibitor, single point]",–
O=S(=O)(Nc1cc2nc3ccccc3nc2n1Cc1ccccc1)c1ccc(Cl)cc1,"inconclusive [inhibitor, single point]",–

Compound,Potency,max response
Cc1ccc(S(=O)(=O)Nc2nc3ccccc3nc2Nc2cccc(S(=O)(=O)N3CCCC3)c2)cc1,active: 23.1 µM,–
Cc1cc(C)cc(Oc2nc(C(F)(F)F)nc3ccccc23)c1,"inconclusive [inhibitor, single point]",–
COc1ccc(-c2cnc3c(c2)CCC3(C#N)C#N)cc1,"inconclusive [inhibitor, single point]",–
CCOC(=O)Cc1ccc(Nc2nc3cc(-c4sccc4C)sc3c(=O)n2C)cc1,"inconclusive [inhibitor, full curve]",–
CCOC(=O)c1c(-c2ccc(OC)cc2)csc1/N=C/C1=C(O)CCCC1=O,"inconclusive [inhibitor, single point]",–
COC(=O)c1cc(NC(=O)c2ccccc2)c(=O)oc1/C=C/Nc1ccc(Oc2ccccc2)cc1,–,inactive: 11.8%
CCCCOc1ccc2c(c1)/C(=C(\C(Cl)=C(Cl)Cl)[N+](=O)[O-])N2,"inconclusive [inhibitor, single point]",–
COc1cccc(N=C2NC(=O)/C(=C/c3cc([N+](=O)[O-])ccc3O)S2)c1,"inconclusive [inhibitor, single point]",–
COc1ccc(N2C(=O)CC(Sc3nc(C)c4c(n3)CCCC4)C2=O)cc1 (stereo not drawn),"inconclusive [inhibitor, partial curve]",–
COc1cccc(C2=CC(c3cc(OC)ccc3OC)n3nnnc3N2)c1 (stereo not drawn),"inconclusive [inhibitor, partial curve, poor fit]",–
CN1CCN(c2nc3ccccc3nc2NS(=O)(=O)c2ccc(Br)cc2)CC1,–,inactive: -6.45%
N#C/C(=C\c1ccc(C(=O)O)cc1)c1nc2sc3c(c2c(=O)[nH]1)CCCC3,–,inactive: -29.5%
CC1Sc2ccc(C(=O)NCc3ccccn3)cc2NC1=O (stereo not drawn),–,inactive: 3.16%
COc1ccc(OC)c(C2C=C(c3ccc(C)c(C)c3)Nc3nnnn32)c1 (stereo not drawn),"inconclusive [inhibitor, full curve]",–
CSc1cccc(NC(=O)c2cc3c(COC(C)=O)cnc(C)c3oc2=O)c1,–,inactive: 2.84%
CC(=O)c1ccc(-c2ccc(C(=O)Nc3nc(-c4ccccn4)cs3)o2)cc1,active: 12.5 µM,–
COc1ccc(CN=Cc2[nH]c3ccc(Br)c(Cl)c3c2O)cc1,"inconclusive [inhibitor, partial curve, poor fit]",–
Nc1c(C(=O)N/N=C/c2ccc(F)cc2)oc2nc(-c3ccccc3)cc(-c3ccco3)c12,active: 6.27 µM,–
CCCCN(C)CC(O)Cn1cc(/C=C/C(=O)c2cccs2)c2ccccc21 (stereo not drawn),"inconclusive [inhibitor, single point]",–
CCOC(=O)c1c(CN(CC)CC)n(-c2ccccc2)c2ccc(O)cc12,–,inactive: 2.24%
CC(C)CCNC(=O)c1ccc2c(c1)NC(=O)C(CS(=O)(=O)Cc1cccc(Br)c1)N2 (stereo not drawn),–,inactive: 2.76%
CCOc1ccccc1OCC(=O)N/N=C(\C)Cc1ccc(OC)cc1,"inconclusive [inhibitor, single point]",–
